Test results as given in PubChem BioAssay AID1508624 (National Center for Advancing Translational Sciences (NCATS), 2021).
The campaign covered roughly 48,000 compounds. About 120 (0.25%) were called active. Another 4% or so got no clear call; they are omitted. Calls come from the whole dose curve; as a rule, active = well fitted activation curve with a large enough effect; inconclusive = small, poorly fitted or top-dose-only effect, or another doubt; inactive = no such curve, though single readings can be large or run the other way. The list shows a part of the results.

Test: Primary qHTS for Identification of Small Molecule Activators of Huntingtin-Antisense Promoter Activity; note: nearly all actives have a fitted effect of over 55% in size
Settings: HEK293 HTT-AS promoter firefly luciferase reporter, 24 h; series mostly up to 57.5 µM; activity change, positive = activation: at the top concentration
Method in brief: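 HEK293 Fluc reporter, 2,500 cells/well, 24 h pre-culture; cpds up to 57.5 uM final, 24 h 37 degrees C; Dual-Glo, 10 min RT; normalized vehicle = 0%, zero RLU = -100%.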

Activity change, positive = activation, inactive:
O=C(c1[nH]c2ccccc2c1Sc1ccc(Cl)cc1)N1CCCCC1 -10%, CCC1CN(C(=O)N2CCC(C(=O)NCCc3ccccc3C)CC2)c2ccccc2O1 (centres undefined) -38.1%, CCOc1ccccc1CNCc1c(C(=O)O)c(C)n(Cc2ccc(Cl)cc2)c1C -11%, CCN(Cc1ccccc1)Cc1c(O)ccc2c(=O)c(-c3ccccc3)c(C(F)(F)F)oc12 -27.9%, CCN(CC)CCNC(=O)c1ccc2c(c1)NC(=O)C(CS(=O)(=O)Cc1cccc(Br)c1)N2 (centres undefined) -5.88%, COc1ccc(-c2nc3cc(C(C)C)ccc3o2)cc1NC(=O)COc1ccc(C)cc1C 7.37%, O=C(Cn1c(=O)c2ccccc2n(CC(=O)Nc2ccc(F)cc2F)c1=O)NCCc1ccccc1 -15.9%, Cc1ccc(C)c(Nc2ncnc3onc(C)c23)c1 -17.9%, COc1ccc(NC(=O)CCSc2nc(-c3ccco3)cc(C(F)(F)F)n2)cc1 -7.47%, COc1ccc(NC(=O)CSc2ncccc2C(=O)O)cc1OC 1.23%, CCN(C(=O)c1cc2c(=O)oc3ccc(C)cc3c2s1)c1cc(OC)ccc1OC -23.4%, COc1ccccc1N1CCN(S(=O)(=O)c2c(C)sc3ncn(CC(=O)Nc4ccc(C(F)(F)F)cc4)c(=O)c23)CC1 16.3%, CC(=O)c1ccc(NC(=O)C2CCCN(S(=O)(=O)c3ccc4c(c3)CCCN4C(C)=O)C2)cc1 (centres undefined) -21.3%, Cc1cc(C)c(NC(=O)CCCN2C(=O)COc3ccc(C)cc32)c(C)c1 -10.1%, Cc1ccc(OCC(=O)Nc2ccccc2C(=O)OCc2cc(=O)n3ccsc3n2)cc1C 0%, COc1ccc(CCNC(=O)CN(c2cc(C(F)(F)F)ccc2Cl)S(C)(=O)=O)cc1 -15.8%, O=C(Cn1ccc2cc(S(=O)(=O)N3CCCCC3)ccc21)NCCc1ccc(Cl)cc1 -41.9%, COC(=O)c1sc(NC(=O)c2cc3nc(-c4ccc(Br)cc4)cc(C(F)(F)F)n3n2)c(C(=O)OC)c1C -1.78%, CCc1ccc(NC(=O)c2cc3nc(-c4ccc(C)cc4)cc(C(F)(F)F)n3n2)cc1 -6.16%, CCOC(=O)c1c(NC(=O)Cc2coc3cc(C)ccc23)sc2c1CCCC2 -2.42%, CCC1CN(C(=O)N2CCC(C(=O)Nc3cc(C)ccc3C)CC2)c2ccccc2O1 (centres undefined) -17.1%, CCCCOc1ccc(C(=O)CCN2CCCCC2)cc1 -2.59%, COc1cc(C2c3c(oc4ccccc4c3=O)C(=O)N2c2nncs2)cc(OC)c1OC (centres undefined) -17.8%, Cc1cccc(-c2cc(NC(=O)C(C)(C)C)n(-c3ccccc3)n2)c1 19.6%, O=C(COc1ccc(F)cc1)Nc1ccccc1C(=O)OCc1cc(=O)n2nc(C3CC3)sc2n1 -23.9%, Cc1nc2nc(SCc3ccc(F)cc3Cl)nn2c(C)c1Cc1ccccc1 -0.411%, CCOc1ccc(-c2cn3c(n2)sc2cc(C(=O)NCCCc4ccccc4)ccc23)cc1 -7.36%, O=C(CS(=O)(=O)c1cccc2nsnc12)NCc1ccc(Cl)cc1 -3.74%, COc1ccc(-c2c(C)nn3c4c(cnc23)C(=O)CC(c2ccccc2)C4)cc1 (centres undefined) -0.866%, CC(NC(=O)c1ccc(Nc2nc3ccccc3n3nnnc23)cc1)c1ccccc1 (centres undefined) 12.4%, Cc1nc2nc(-c3ccc(Cl)cc3Cl)nn2c(C)c1CCC(=O)Nc1ccc(F)cc1 -80.3%, COc1cccc(N2CC(NC(=O)c3ccc4c(c3)OCO4)CC2=O)c1 (centres undefined) -11.7%, CCCCN(C)CCCNC(=O)CN1C(=O)COc2ccc(S(=O)(=O)N3CCOCC3)cc21 -5.76%, CC1CCN(S(=O)(=O)c2cc3c4c(c2)CC(=O)N4CCC3)CC1 -18.6%, Fc1ccc(-c2cc(-c3ccccc3)c3c(n2)-c2cc(F)ccc2OC3)cc1 -6.35%, Cc1ccc(-c2c(C)n3c4c(=O)n(C)c(=O)n(C)c4nc3n2-c2cccc(O)c2)cc1 -16.2%, COc1ccc(S(=O)(=O)NCC(c2ccco2)N2CCOCC2)cc1 (centres undefined) -16.4%, Cc1cc(C)cc(NC(=O)CSc2oc(-c3cccs3)nc2S(=O)(=O)c2ccccc2)c1 -28%, CCOC(=O)c1cc(S(=O)(=O)N2CCN(c3cc(C)ccc3C)CC2)[nH]n1 -10.8%, COc1ccccc1Nc1nn2c(=O)c3ccc(C(=O)N4CCCCC4)cc3nc2s1 -24.3%, COc1ccc(CCC(=O)Nc2nc3ccc(Cl)cc3s2)cc1OC 14.9%, Cc1cccc(C)c1N1CC(c2nc3ccccc3n2CC(=O)OC(C)C)CC1=O (centres undefined) -25.2%, COc1ccc(NC(=O)CSc2nc3cc(OC)c(OC)cc3c3nc(-c4ccccc4)nn23)cc1Cl 0.939%, COc1ccc(-c2cc3nccn3c(Nc3ncccc3C(N)=O)n2)cc1OC -5.09%, COc1cc(-c2ccno2)ccc1S(=O)(=O)N1CCN(c2ccccc2F)CC1 -27.4%, COC(=O)c1ccc(NC(=O)C(=O)NCCc2sc(-c3cccc(F)c3)nc2C)cc1 -4.61%, COc1ccc(CC(=O)NCc2nc3cccnc3n2Cc2ccc(C)cc2)cc1 -12.1%, CCCN(CCC)C(=O)CSc1nc2ccccc2c(=O)n1Cc1ccco1 -23.8%, CCc1ccc(NC(=O)Cn2c(=O)n(CCC(=O)NCc3ccc4c(c3)OCO4)c(=O)c3ccccc32)cc1 -16.6%, CCC1CN(C(=O)Nc2cc(C)cc(C)c2)c2ccccc2O1 (centres undefined) -27.4%, Cc1cc(NC(=O)c2cc(-c3ccc(Cl)cc3)on2)nn1Cc1ccc(Cl)cc1 -33.3%, Cc1c(C)n(Cc2ccccc2)c2ccc(C(=O)NCc3ccco3)cc12 -15%, Cc1cccc(CN2CCc3nc(N4CCN(c5ccccn5)CC4)ncc3C2)c1 -45.3%, COc1cccc(Cn2c(=O)n(-c3ccccc3C)c(=O)c3c2c2cc(C)ccc2n3C)c1 -42.5%, COc1cccc(NC(=O)C2CCN(C(=O)N3CC(C)Oc4ccccc43)CC2)c1 (centres undefined) -25.6%, Cc1ccc(CNC(=O)CN2C(=O)C3CCCCN3c3ccc(C(=O)N4CCCC4)cc32)cc1 (centres undefined) -11.6%, COc1ccc(Cl)cc1C(=O)Nc1ccc(-c2nnc3n2CCCCC3)cc1 -12.9%, O=C(NCc1ccccc1Cl)c1ccc2c(O)c(S(=O)(=O)c3ccccc3)c(=O)[nH]c2c1 -13.7%, CC(=O)c1ccc(NC(=O)CCc2c(C)nc3cc(-c4ccc(Cl)cc4)nn3c2C)cc1 -80%, COc1cccc(-n2c(SCc3ccccc3C)nc3c([nH]c4ccccc43)c2=O)c1 -23.5%, Cc1ccc(C)c(NC(=O)CN(CCc2ccccc2)S(=O)(=O)c2ccccc2)c1 -25.5%, Cc1cccc(Cc2c(C)nc3nc(SCc4ccccc4C)nn3c2C)c1 1.49%, CN(C)S(=O)(=O)c1ccc2c(c1)nnn2CCNC(=O)Nc1ccc(Br)cc1 -11.9%, Cn1c(=O)c2c(nc(NCc3ccccc3)n2Cc2ccccc2Cl)n(C)c1=O 3.64% [at 11.5 µM, percent change from vehicle, -100% = no light], CCCCOc1ccc(CNC(=O)c2cnc3sc(N4CCOCC4)nn3c2=O)cc1 1.84%, COc1cccc(OCc2nc3ccccc3n2CCOc2ccccc2C)c1 -11%, Cn1nnc2c(C(N)=O)ncn2c1=O, CCOC(=O)C(C)Oc1cccc2c(=O)n(CC(=O)Nc3ccc4c(c3)OCCO4)ccc12 (centres undefined) 7.18%, O=C(CCn1ccc2cc(S(=O)(=O)N3CCCC3)ccc21)NCc1cccc(Br)c1 -3.21%, Cc1ccc(C)c(Nc2nn3c(=O)c4ccc(C(=O)NC5CCCCC5)cc4nc3s2)c1 -14.9%, COc1ccc(CCNC(=O)CCCCn2c(=O)c3ccccc3n(Cc3ccc(F)cc3Cl)c2=O)cc1OC -13.1%, O=[N+]([O-])c1cn2c(n1)OC[C@@H](OCc1ccc(OC(F)(F)F)cc1)C2 -13.2%, Cc1ccc(C(=O)NCC(c2cccnc2)N2CCc3ccccc32)cc1C (centres undefined) -33.1%, CC(=O)Nc1ccc(C2Nc3c(C)cc(C)cc3-c3cc(C)nn32)cc1 (centres undefined) -7.83%, COc1cc(OC)c(NS(=O)(=O)c2ccc3c(c2)NC(=O)CCS3)cc1Cl -49.2%, Cc1ccc(S(=O)(=O)NCCSc2nnnn2-c2ccc(Cl)c(C(=O)O)c2)cc1 -10.2%, CCOC(=O)c1ccc(NC(=O)C(Cc2ccccc2)NS(=O)(=O)c2ccc(Br)s2)cc1 (centres undefined) -0.286%, CCOC(=O)c1c(C)oc2nc(C)nc(NCc3ccccc3OCC)c12 -16.4%, Cc1cc(C)cc(Nc2sc(C(=O)c3ccccc3)c(N)c2S(=O)(=O)c2ccccc2)c1 -4.26%, CC(C)(C)CC(C)(C)c1ccc(OCCOCC[N+](C)(C)Cc2ccccc2)cc1 -41.5%, O=C(NCc1ccccc1Cl)C1CCCN(c2ncnc3onc(-c4ccc(F)cc4)c23)C1 (centres undefined) -19%, CCc1nn(CC(=O)NC(C)c2ccccc2)c(=O)c2cc3sccc3n12 (centres undefined) -4.04%, CCOC(=O)C1=C(CS(=O)(=O)c2ccc(F)cc2)NC(=O)NC1c1ccc(OCC)c(OC)c1 (centres undefined) -9.85%, CC(C)CCNC(=O)[C@@H](c1ccccc1)N1Cc2ccccc2C1=O -28.5%, CCOc1ccc(NC(=O)Cn2nnc(C(=O)Nc3ccc(OCC)cc3)c2N)cc1 25.9%, Cc1ccc(C)c(N2CCN(c3cc(C)nc4c(-c5ccc(Cl)cc5)c(C)nn34)CC2)c1 -7.98%, Cc1cc(C)cc(OCC(=O)NCC2(N(C)C)CCCCC2)c1 -5.13%, CCCc1cc(=O)n2[nH]c(NCc3ccccc3OC)nc2n1 5.69%, Cc1ccc(S(=O)(=O)N2CCC(c3ccncc3)CC2)c(C)c1 -84.1%, O=C(COc1ccccc1-c1nc(-c2ccccc2)no1)Nc1ccccc1[N+](=O)[O-] -9.93%, O=C(CCS(=O)(=O)c1cc(Br)cc2c1N(C(=O)C1CC1)CC2)Nc1ccc(C(F)(F)F)cc1 -9.52%, COc1cccc(CNC(=O)CN2C(=O)COc3ccc(S(=O)(=O)Nc4ccccc4)cc32)c1 -31.3%, CN(Cc1ccccc1)C(=O)C1CCN(S(=O)(=O)c2ccc3nc4c(c(C(=O)O)c3c2)CCCC4)CC1 -4.51%, COc1ccc(CNC(=O)C2CCN(C(=O)N3CC(C)Oc4ccc(C)cc43)CC2)cc1 (centres undefined) -33.1%
